Reference: article PMC12136788
The other results are listed elsewhere or left out.

B1: chr4:138171112:138171219:-|3pUTR|ENSG00000151012|msi1|total|mutant (ssRNA)
RNA: GGGAGUUCUACAGUCCGACGAUCUUUUUUUUUUUCACAUCAGUUUGAUCAGGAAAGUGUAUAACACAUCUCCGAGCAAGAGUCCGUUUGGUAUUAAAUCCUCAUCCGAACAACCACCUGUUUCACUAAUAACUUACCCCUGAUCAACAGAGGAUUGAGCAUCA
B2: chr8:27776916:27777017:+|CDS|ENSG00000171320|unk|total|mutant (ssRNA)
RNA: GGGAGUUCUACAGUCCGACGAUCAAACCACAAGUUACACUCCAGGGUGGAGCAGCAUUUUUUGUCCGAAAAAAAUCUUCUCUCCGAAAAUCGUCCCUGGAAAAUGAGCCGUCACUGGGACGCACCCAAAAGAGUAAAUCAGAACAACAGAGGAUUGAGCAUCA
B3: chr16:57472207:57472321:-|3pUTR|ENSG00000125170|unk|total|mutant (ssRNA)
RNA: GGGAGUUCUACAGUCCGACGAUCUCAAACUUUUGGUUGUGUGGGGUUUUUUGUUGUUUUUUGGGUUUUGUUUUUUAAUACUUCCGGGUCCUGAUUUGUGGGAACAGACCUUCUUGUAAAUAACCACUAUUUGAGUUGUGGCAGCAACAGAGGAUUGAGCAUCA
B4: chr7:32869766:32869881:-|CDS|ENSG00000170852|unk|FALSE|bound_elsewhere (ssRNA)
RNA: GGGAGUUCUACAGUCCGACGAUCAUGUACUGUUAUUUUCCAAGGUCUGACUCAUGGGUAGAAAUGGCCAUGAGACAGACUAGUAGGUCCUUUGCUUCAGCUGCAGCUUUUGGUGAUAAAAUUUUCUAUAUUGGAGGGUUGCAUCAACAGAGGAUUGAGCAUCA
B5: chr1:19339193:19339294:-|3pUTR|ENSG00000077549|msi1|total|mutant (ssRNA)
RNA: GGGAGUUCUACAGUCCGACGAUCGAGACCGUGUGGUUUUUGUUCACCCGGGCCCCCCGUCUUCCUCCCUGUCCCCCCAUUUACCGGCAUAAAAUCCACUGUCUGCCAGCCUCCCUUCCCUCCCACCUUUUUGGUACAUUGGUGCAACAGAGGAUUGAGCAUCA
B6: chr12:96943601:96943709:+|CDS|ENSG00000139350|unk|total|mutant (ssRNA)
RNA: GGGAGUUCUACAGUCCGACGAUCAACUCAGUGUUUCCUCCAAGAAAAAAUCCAGUAACUUCAAGUACUUCAGUAUUGCAUUCCCGUCCUCUUAAUGUUUUUAUGGGAUCUCCAGGGAAAGAGGAAAAUGAAAACCGUGAUCUACAACAGAGGAUUGAGCAUCA
B7: chr12:27755550:27755651:+|3pUTR|ENSG00000061794|msi1|total|mutant (ssRNA)
RNA: GGGAGUUCUACAGUCCGACGAUCAUACUAAUGCUUAAUGGCAAUGAUUACUCCAGAGUUUUUUAAUUUUUACACUGGGGCAACCGACCCGGAGGUCUCUGAUUUCUUCUUGGUCUAAAGUGUUUUGAUUUUAUUUCUACAUAACAACAGAGGAUUGAGCAUCA
B8: chr3:100749155:100750494:-|three_prime_utr|ENSG00000154175|control|control|control (ssRNA)
RNA: GGGAGUUCUACAGUCCGACGAUCUGCCGCAUUCAUUUAAAGCUAUUUUGUUUACUAUGUAUAAAAGUCUACAAUCUAAUUAAUAGCAAUACUAGAUGUUUAUUAUUAGAAAAGAUUGCUGAGAGUAUUUAUCAGGUUUUACAACAACAGAGGAUUGAGCAUCA
B9: ENSG00000107863:be:win_2301|CDS|ENSG00000107863|bound_else_gene|NA|bound_elsewhere_windowed (ssRNA)
RNA: GGGAGUUCUACAGUCCGACGAUCAGACACUACCUGCUGGCUGCCCAAUGAUGCACGUCGAGAGGUCCACAUAAAAAGAAUGGAGGAAAGAAAAGCCUCGAGUACCAGUCCGCCUGGCGAUUCUUUGGCUUCCAUCCCAUUUAUCAACAGAGGAUUGAGCAUCA
B10: chr20:53567570:53567671:-|3pUTR|ENSG00000171940|unk|total|mutant (ssRNA)
RNA: GGGAGUUCUACAGUCCGACGAUCUCACAAGCUGAGCCAUAUGUACAUAAUCCCGAUUUUGUUUUCACCGUUUUGCACUUUUACCGCCUAUUUUUGAAGAUUAACACAUUUGCAAGAUGAUUGACUCAAUCUUUGCCUAAUCCACAACAGAGGAUUGAGCAUCA
B11: chr5:32419879:32419980:-|CDS|ENSG00000056097|msi1|FALSE|unique (ssRNA)
RNA: GGGAGUUCUACAGUCCGACGAUCAGUUACUGCUGCCUAUGCACCAGCAGCCGCCACAGUUGCAGUUGCCAGGCCUGCUCCAGUAGCUGUUGCAGCUGCUGCAACAGCUGCUGCUUAUGGAGGCUACCCCACUGCACACACAGCCAACAGAGGAUUGAGCAUCA
B12: chr13:24435137:24435247:-|CDS|ENSG00000102699|unk|total|mutant (ssRNA)
RNA: GGGAGUUCUACAGUCCGACGAUCAAACCAACAGCAACUGAACCACUAUUUAAGAAAGUCAGUCCAUGGGAAACAUCUACUUCCCGCUUUUUUCCUAUUUUGGCUCCGGCCGUUGGUUCCUAUCUUCCCCCGACUGCCCGCGCUCAACAGAGGAUUGAGCAUCA
B13: ENSG00000070961:be:win_3551|CDS_3pUTR|ENSG00000070961|bound_else_gene|NA|bound_elsewhere_windowed (ssRNA)
RNA: GGGAGUUCUACAGUCCGACGAUCACAAAAAUAACAAUGCUGUUGACAGUGGAAUUCACCUUACAAUAGAAAUGAACAAGUCUGCUACCUCUUCAUCCCCAGGAAGCCCACUACAUAGUUUGGAAACAUCACUCUGAUUGUAAGCAACAGAGGAUUGAGCAUCA
B14: chr14:106088121:106088428:-|CDS|ENSG00000282639|control|control|control (ssRNA)
RNA: GGGAGUUCUACAGUCCGACGAUCGUCCGCCAGGCUCCAGGGAAGGGACUGGAAUAUGUUUCAGCUAUUAGUAGUAAUGGGGGUAGCACAUACUACGCAGACUCCGUGAAGGGCAGAUUCACCAUCUCCAGAGACAAUUCCAAGCAACAGAGGAUUGAGCAUCA
B15: chr19:48922626:48922741:+|3pUTR|ENSG00000104805|msi1|total|mutant (ssRNA)
RNA: GGGAGUUCUACAGUCCGACGAUCUCCUCCGAGGGGCUUGCCUUCUCUCGUGUCCAGUGAGGUGCUCAGUGAUCGGCUUAACUCCGAGAAGCCCGCCCCCUCCCCUUCUCCGUCUGUCCCAAGAGGGUCUGCUCUGAGCCUGCGCAACAGAGGAUUGAGCAUCA
B16: chr3:27418507:27418620:-|CDS|ENSG00000033867|unk|FALSE|bound_elsewhere (ssRNA)
RNA: GGGAGUUCUACAGUCCGACGAUCUGAUGUAGCUUAUAAAGCAAAAGACAGAAAUGACCUCUUAUCUGGAAUUGAUGAAUUUUUAGAUCAAGUAACUGUCCUACCUCCAGGAGAGUGGGAUCCUUCUAUACGCAUAGAACCACCCAACAGAGGAUUGAGCAUCA
B17: chr15:48879495:48879609:+|3pUTR|ENSG00000255302|msi1|total|mutant (ssRNA)
RNA: GGGAGUUCUACAGUCCGACGAUCGACACUAAAUGUGUGUGAAUGUACAAAGAAAACAAACCAUUGCUUAUGCUGUUAUAUACCCGAGAAAUUUUGUUUUGCUUGCUGUUUUAACUUGACAGAUGAAGGACUUCCGUUGAACUUCAACAGAGGAUUGAGCAUCA
B18: chr16:57471571:57471634:+|3pUTR|ENSG00000102978|msi1_unk|total|mutant (ssRNA)
RNA: GGGAGUUCUACAGUCCGACGAUCACCGCCUUUAUUCAGGGGGCCUAUAAACCCUUCCAGUUCUUGCCCCAGGGCUGGCCUGCCCGCGCUUCAAAUUCCCAGGUGUCCCUAAUUUGAGAAGUAACCUUUUGGAACCGCAUCCGACAACAGAGGAUUGAGCAUCA
B19: chrX:78656995:78658420:-|CDS|ENSG00000179300|control|control|control (ssRNA)
RNA: GGGAGUUCUACAGUCCGACGAUCCCUAUCUGAUCUCAUCACUCAGUGCAUCAGCCUGGAAGAGAAGCCUGAUCCCAAUCCAUUAGGGAAAAGUUCCUCUGCAGAGGGAGAUGGACCCGAGAGUCCACCAGCUGAAAACCAACCCAACAGAGGAUUGAGCAUCA
B20: chr16:70398910:70399011:-|5pUTR|ENSG00000157350|unk|FALSE|unique (ssRNA)
RNA: GGGAGUUCUACAGUCCGACGAUCCACUUGCAUGGAACCCAAGUCCCCUGAAGCCCCUGUGCUCUCUGUUGUGAUUGGAGUUCUAGGGCUUCCCCGCUGCCGGGAACGAGGGGCCGCCUCAUUGUCUGCUCAUGAACCACAAGGCAACAGAGGAUUGAGCAUCA
B21: chr10:74136666:74136778:-|CDS|ENSG00000185009|unk|total|mutant (ssRNA)
RNA: GGGAGUUCUACAGUCCGACGAUCUUCAGAGGCUGCAAUUAAGGAUAAUGUGGUCACCGUAUAUGAACUCUCCGAAGAAAUGUCCGACAAUGGAUUUCCACUGGCUACCGAAUCUAACAUUUUGAAAGAAUUGAUUAAACCACCCAACAGAGGAUUGAGCAUCA
B22: chr1:77728514:77728621:-|CDS|ENSG00000077254|unk|total|mutant (ssRNA)
RNA: GGGAGUUCUACAGUCCGACGAUCAGAUCCGCAAACCAUAACCACUGAGGAGACAAUGGAAGAAGACAAGAGCCAGUCGGAUGCCGAUUUUCAGUCUUGUGAAUCUUGCCGCAACAGUGACCGAGCAGAAAAUGAAAAUGGCUCCAACAGAGGAUUGAGCAUCA

target: T1, UNK ZnF1-6 (called full-length) (human, UniProt Q9C0B0 30-357); experiment: nsRBNS (natural sequence RNA bind-n-seq); RBNS binding buffer (assumed for nsRBNS): 25 mM Tris pH 7.5, 150 mM KCl, 3 mM MgCl2, 0.01% Triton X-100, 500 ug/ml BSA, 20 U/ml SUPERase-In, 4 C; UNK is unkempt and MSI1 is Musashi-1; names of the RNAs are library labels; protein concentration not given here; high values mean tight binding
T1 sequence: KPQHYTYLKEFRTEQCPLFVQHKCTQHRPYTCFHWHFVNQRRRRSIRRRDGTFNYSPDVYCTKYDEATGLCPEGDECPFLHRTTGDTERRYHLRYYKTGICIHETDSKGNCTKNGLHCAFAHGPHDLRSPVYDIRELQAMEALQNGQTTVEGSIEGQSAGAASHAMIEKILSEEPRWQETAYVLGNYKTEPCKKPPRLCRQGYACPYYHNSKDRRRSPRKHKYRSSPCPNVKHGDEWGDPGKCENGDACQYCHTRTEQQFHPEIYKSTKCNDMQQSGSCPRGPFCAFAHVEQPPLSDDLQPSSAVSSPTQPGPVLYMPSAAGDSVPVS

Row | Binder | binding signal
1 | B1 | 0.593 enrichment R
2 | B2 | 0.413 enrichment R
3 | B3 | 0.574 enrichment R
4 | B4 | 0.714 enrichment R
5 | B5 | 1.47 enrichment R
6 | B6 | 0.336 enrichment R
7 | B7 | 0.678 enrichment R
8 | B8 | 1 enrichment R
9 | B9 | 0.603 enrichment R
10 | B10 | 0.457 enrichment R
11 | B11 | 0.467 enrichment R
12 | B12 | 0.485 enrichment R
13 | B13 | 0.621 enrichment R
14 | B14 | 1.13 enrichment R
15 | B15 | 1.06 enrichment R
16 | B16 | 0.413 enrichment R
17 | B17 | 0.453 enrichment R
18 | B18 | 0.71 enrichment R
19 | B19 | 0.532 enrichment R
20 | B20 | 0.679 enrichment R
21 | B21 | 0.434 enrichment R
22 | B22 | 0.458 enrichment R
